In PubChem BioAssay AID1671194 (National Center for Advancing Translational Sciences (NCATS), 2021):
Among all 140,000 compounds or so, about 240 (0.17%) were called active. This list was built around the results that the source calls inconclusive (neither active nor inactive); the mix of calls is not that of the screen. Calls follow the shape of the dose curve; as a rule, active = well fitted inhibition curve with a large enough effect; inconclusive = small, poorly fitted or top-dose-only effect; inactive = no such curve, though single readings can be large or run the other way. Potencies beside an inconclusive call are fits to weak or partial responses and may not hold up.

Assay: Primary qHTS assay for inhibitors of alpha-synuclein gene (SNCA) expression; also: nearly all actives have a fitted effect of over 45% in size
Settings: HEK-293 SNCA-luciferase knock-in, luminescence, 24 h; series mostly up to 57.2 µM
Potency is read from the fitted curve at half-maximal effect; tags tell the direction and shape of the fitted curve.

Structure (SMILES) | Potency
CCCS(=O)(=O)Nc1ccc(=O)n2c1[C@@H]1C[C@@H](CN(C(=O)c3ccc(F)cc3)C1)C2 | inconclusive: 12.6 µM [inhibitor, single point]
Cc1nc(-c2cccs2)cc([C@H]2CN3CC[C@H]2C[C@@H]3CNC(=O)N2CCOCC2)n1 | inactive
COc1cc2c(cc1Oc1ccccc1)NC(=O)C21CCN(Cc2ccccn2)CC1 | inconclusive: 28.2 µM [inhibitor, single point]
COP(=S)(OC)SCN1C(=O)c2ccccc2C1=O | inactive
CCOC(=O)[C@H]1CN(C(=O)c2ccc(Cl)cc2)[C@]2(C)C(=O)N(CCOC(C)=O)c3ccccc3[C@H]12 | inactive
COc1cc2c(cc1OCc1ccccc1)N(C(=O)COc1ccccc1)CC21CCN(C)CC1 | inconclusive: 8.91 µM [inhibitor, full curve, poor fit]
CCCCC12CN3CC(C)(CN(C1)C3c1ccccn1)C2=O (centres undefined) | inconclusive: 39.8 µM [inhibitor, single point]
CC(=O)N1C[C@@H]2C[C@H](C1)c1ccc(NC(=O)Nc3ccccc3)c(=O)n1C2 | inactive
CC(C)CCN1CCC2(CC1)CC(c1cccnc1)=NO2 | inconclusive: 4.47 µM [inhibitor, single point]
Cc1cccc(-n2nc(C)c3c2NC(=O)CSC3c2ccccc2Cl)c1 (centres undefined) | inconclusive: 39.8 µM [inhibitor, single point]
O=C1OCC2(CCN(Cc3ccn[nH]3)C2)N1c1ccncc1 (centres undefined) | inactive
CC(C)Cc1nc2cccnc2n1C1CCNCC1 | inactive
Cc1ccc(NC(=O)Cn2cc(C(=O)c3ccccc3)c3ccccc32)c(C)c1 | inconclusive: 12.6 µM [inhibitor, partial curve]
COc1cc2c(cc1OC1CCCC1)NC(=O)C21CCN(Cc2ccccc2)CC1 | inactive
COc1ccc(NC(=O)N2[C@H]3CC[C@@H]2c2cnc(C)nc2C3)cc1OC | inconclusive: 3.16 µM [inhibitor, partial curve, poor fit]
COc1cc2c(cc1OCC1CC1)NC(=O)C21CCN(c2nccc(C(F)(F)F)n2)CC1 | inconclusive: 39.8 µM [inhibitor, single point]
Cc1cccc(CN2C(=O)CN=C(c3ccccc3)c3ccccc32)c1 | inconclusive: 10 µM [inhibitor, partial curve, poor fit]
CCCNC(=O)OC[C@H]1C[C@@H]2CCN1C[C@@H]2c1cc(-c2cccs2)nc(C)n1 | inactive
COc1ccc(NC(=O)N2[C@H]3CC[C@@H]2c2cncnc2C3)cc1OC | inconclusive: 20 µM [inhibitor, single point]
